Results published in patent US20140329863A1 (priority 2011, published 2014).

Tests used:
[1] = Hepatic microsomal stability, rat; conditions: Sprague-Dawley, liver microsomes, pH 7.4
[2] = Binding in mouse brain homogenate; conditions: for Percentage binding, Mouse (Brain) homogenate, 1 μM / Unbound (%), Mouse Brain Homogenate: 1 μM; for Unbound (%), Mouse Brain Homogenate: mean ± SD, n = 3

SMILES | half-life at 1 μM ([1]; female) | half-life at 1 μM ([1]; male) | half-life at 1 μM [1] | Percentage binding, Mouse (Brain) homogenate, 1 μM [2] | Unbound (%), Mouse Brain Homogenate [2] | Percentage binding, Mouse (Brain) homogenate, 10 μM [2]
C(=N\Nc1ccc(-c2cnco2)cc1)/c1ccncc1 [IND54304, reference compound] | 1.6 h | 1.6 h |  |  |  | 
Cc1cccc(Nc2nc(-c3cc4ccccc4o3)cs2)n1 [IND22, (4-Benzofuran-2-yl-thiazol-2-yl)-(6-methyl-pyridin-2-yl)-amine] |  |  | 1.77 h |  |  | 
Cc1cccc(Nc2nc(-c3ccc(-c4ccccc4)cc3)cs2)n1 [IND24, (4-Biphenyl-4-yl-thiazol-2-yl)-(6-methyl-pyridin-2-yl)-amine] | 12.8 h | 7.17 h | > 1 h | 91.8 ± 0.35% | 8.20 ± 0.35% | 93.1 ± 1.69%
Cc1ccnc(Nc2nc(-c3ccncc3)cs2)c1 [IND52, (4-Methyl-pyridin-2-yl)-(4-pyridin-4-yl-thiazol-2-yl)-amine] |  |  | 0.267 h |  |  | 
Cc1ccnc(Nc2nc(-c3ccc(-c4ccccn4)s3)cs2)c1 [IND81, (4-Methyl-pyridin-2-yl)-[4-(5-pyridin-2-yl-thiophen-2-yl)-thiazol-2-yl]-amine] | 4.83 h | 1.17 h | 0.967 h | 90.6 ± 1.49% | 9.43 ± 1.49% | 90.7 ± 1.43%
C(=N\Nc1ccc(-c2cnco2)cc1)/c1ccncc1 [Compound B, (E)-5-(4-(2-(pyridin-4-ylmethylene)hydrazinyl)phenyl)oxazole, reference compound] |  |  |  |  | 11.4 ± 2.89% | 
c1ccc2cc(Nc3nc(-c4ccncc4)cs3)ncc2c1 [IND85, Isoquinolin-3-yl-(4-pyridin-4-yl-thiazol-2-yl)-amine] |  |  | 0.3 h |  |  | 
